Assay results: PubChem BioAssay AID485281 (National Center for Advancing Translational Sciences (NCATS), 2010)
Out of some 350,000 compounds screened, about 260 (0.074%) were called active. The shares of active, inactive and inconclusive entries below differ from those in the screen. Calls follow the shape of the dose curve; as a rule, active = well fitted inhibition curve with a large enough effect; inconclusive = small, poorly fitted or top-dose-only effect; inactive = no such curve, though single readings can be large or run the other way. Potencies of inconclusive entries are doubtful fits and often do not repeat.

Molecular target: Ferritin light chain (Equus caballus) (UniProt P02791)
UniProt P02791, sequence (P02791 whole entry, looked up): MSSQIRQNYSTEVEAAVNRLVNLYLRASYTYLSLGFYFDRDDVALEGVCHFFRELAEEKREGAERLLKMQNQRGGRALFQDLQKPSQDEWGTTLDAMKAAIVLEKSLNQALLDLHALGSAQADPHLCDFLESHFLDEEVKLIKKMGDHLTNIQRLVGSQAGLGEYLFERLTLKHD
Assay: qHTS Assay for Identification of Novel General Anesthetics; also: nearly all actives have a fitted effect of over 20% in size
Conditions: apoferritin/1-aminoanthracene competitive binding, fluorescence; activity change, negative = displacement: at 77.5 µM (top of the series)
Outline: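 Horse-spleen apoferritin (10 uM) was mixed with 50% saturated 1-aminoanthracene in PBS, exposed to compounds for 10 min at room temperature, and read for fluorescence (ex 380 nm, em 535 nm). Competitive displacement was fitted with a four-parameter Hill equation.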
% is scaled to controls: 0 for no effect and ±100 for the full control effect; potency is read from the fitted curve at half-maximal effect; tags tell the direction and shape of the fitted curve.

Activity change, negative = displacement, inactive:
O=C(Nc1ccc(Cl)c(C(F)(F)F)c1)c1ccncc1 -8.59%
Cn1c(=NC(=O)c2ccc(S(=O)(=O)N3CCCc4ccccc43)cc2)sc2cc(S(C)(=O)=O)ccc21 3.53%
Cc1nn(Cc2ccc(Cl)cc2)c(C)c1NC(=O)CSc1nc2c(c(C(F)(F)F)n1)CCc1ccccc1-2 -7.98%
Cc1ccc(C(=O)N2CCCC(CCC(=O)N3CCN(c4ccccn4)CC3)C2)cn1 (stereo unspecified) -11.6%
COCCNC(=O)CCCn1c(SCc2ccccc2C)nc2c(sc3ccccc32)c1=O 15.8%
CCOCCCNC(=O)C(c1ccc(Cl)cc1)N(Cc1ccc2c(c1)OCO2)C(=O)c1ccc(NC(C)=O)cc1 (stereo unspecified) -18.7%
CCOc1ccc(C(=O)Nc2ccc(C(=O)OCc3cc(=O)n4c(C)csc4n3)cc2)cc1 29.2%
O=C(NNC(=O)c1ccc(F)cc1F)c1ccc2c(c1)OCO2 -7.85%
CCOc1cc2[nH]c(=O)n(CCCCC(=O)NCc3ccco3)c(=O)c2cc1OCC 3%

Potency, inconclusive:
Cc1ccc(NC2CCCN(C(=O)c3ccc4[nH]ccc4c3)C2)cc1C (stereo unspecified) 12.6 µM [inhibitor, partial curve]
O=C(CC(O)(C(F)(F)F)C(F)(F)F)Nc1ccc(Cl)c(Cl)c1 35.5 µM [inhibitor, partial curve]
CN1C=CC=C/C1=C1\SC(=S)N(Cc2ccccc2)C1=O 35.5 µM [inhibitor, single point]
CC(=O)c1c(C)[nH]c(C(=O)COC(=O)CN(C)S(=O)(=O)c2ccc(Cl)cc2)c1C 25.1 µM [inhibitor, partial curve]
Oc1c(C(c2ccc(Cl)cc2Cl)N2CCN(Cc3ccccc3)CC2)sc2nc(-c3ccco3)nn12 (stereo unspecified) 11.2 µM [inhibitor, partial curve, poor fit]
CCOC(=O)/C(=N\Nc1ccccc1)c1csc(Nc2ccc(C)cc2)n1 3.16 µM [inhibitor, partial curve]
Cc1ccc(C(=O)c2coc3ccc(O)c(Cl)c23)cc1 50.1 µM [inhibitor, single point]
CCc1ccc2oc(-c3cccc(NC(=O)c4cccnc4)c3)nc2c1 22.4 µM [inhibitor, partial curve]
COc1cc2ncc(S(=O)(=O)c3ccccc3)c(N3CCC4(CC3)OCCO4)c2cc1OC 35.5 µM [inhibitor, single point]
CC1=C2C(=O)OC(c3ccoc3)C2(C)CCC1 (stereo unspecified) 31.6 µM [inhibitor, partial curve]
CC(C)c1nc(CN(C)C(=O)N[C@H](C(=O)N[C@@H](Cc2ccccc2)C[C@H](O)[C@H](Cc2ccccc2)NC(=O)OCc2cncs2)C(C)C)cs1 31.6 µM [inhibitor, single point]
Cc1ccc(NC(=O)/C(=C/c2ccco2)c2ccccc2)c(C)c1 28.2 µM [inhibitor, partial curve]
CC1CC(C)CN(C(=O)C(Cc2ccccc2)n2cccc2)C1 (stereo unspecified) 35.5 µM [inhibitor, single point]
CCC(C(=O)Nc1nccs1)(C(F)(F)F)C(F)(F)F 25.1 µM [inhibitor, partial curve]
COc1ccc(CCn2c(=N)c(C(=O)NCc3ccco3)cc3c(=O)n4ccccc4nc32)cc1 35.5 µM [inhibitor, partial curve]
CN1C(=O)C(=C2CCCCCC2)SC1=S 35.5 µM [inhibitor, partial curve]
O=C(c1ccsc1)N1CCCC(Nc2cccc(F)c2)C1 (stereo unspecified) 50.1 µM [inhibitor, single point]
COc1ccc2oc(C(=O)OCC(=O)NC(=O)NC(C)C)c(C)c2c1 28.2 µM [inhibitor, partial curve]
O=C(CSc1nc(=O)n(Cc2ccccn2)c2c1CCC2)Nc1cccc(Cl)c1 39.8 µM [inhibitor, partial curve]
Cc1ccccc1NC(=S)NC(=O)CCc1ccccc1 11.2 µM [inhibitor, partial curve]
O=C(Nc1ccc(Cl)cc1F)c1cc(S(=O)(=O)NC2CCCCCC2)ccc1F 12.6 µM [inhibitor, full curve]
COc1ccc(C(=O)COC(=O)CNS(=O)(=O)c2ccc(C)cc2)cc1 56.2 µM [inhibitor, single point]
Cc1ccc(C(=O)c2cn(Cc3ccccc3)c3ccccc3c2=O)cc1 8.91 µM [inhibitor, partial curve]
Cc1cccc(-c2nc3cc(NC(=O)COc4ccccc4F)ccc3o2)c1 12.6 µM [inhibitor, partial curve, poor fit]
CC(C)OC(=O)c1cc(C(=O)c2cc(Br)ccc2O)coc1=N 22.4 µM [inhibitor, partial curve]
CCOc1ccc(S(=O)(=O)N2CCCCCC2)cc1 39.8 µM [inhibitor, partial curve]
O=C(/C=C/c1ccc(F)cc1)NCCC1=CCCCC1 31.6 µM [inhibitor, partial curve]
O=C(CSc1ncccn1)c1ccccc1Br 25.1 µM [inhibitor, partial curve]
O=C(CCCC(=O)OCC(Cl)=C(Cl)Cl)Nc1ccc(F)cc1 25.1 µM [inhibitor, partial curve]
COC(=O)Cc1csc(Nc2ccccc2)n1 35.5 µM [inhibitor, single point]
c1ccc2c(c1)nc(Nc1ccc(N3CCCCC3)cc1)c1nncn12 7.94 µM [inhibitor, full curve, poor fit]
Cc1nnc(SCC(=O)NC(C)(C)C)n1NCc1ccc(Cl)cc1 22.4 µM [inhibitor, partial curve]
